The chains are these.
B1: TEV protease; numbered along this chain (parent)
chain: MGESLFKGPRDYNPISSSICHLTNESDGHTTSLYGIGFGPFIITNKHLFRRNNGTLVVQSLHGVFKVKDTTTLQQHLVDGRDMIIIRMPKDFPPFPQKLKFREPQREERICLVTTNFQTKSMSSMVSDTSCTFPSGDGIFWKHWIQTKDGQCGSPLVSTRDGFIVGIHSASNFTNTNNYFTSVPKNFMELLTNQEAQQWVSGWRLNADSVLWGGHKVFMVKPEEPFQPVKEATQL

The variants in the assay derive from B1. Kind of assay: raw area under fraction-flipped curve 0-4 h after induction (AUC4h, not background-subtracted), DNA-recorder readout of cleavage of the substrate (dimensionless); higher = more cleavage of the substrate by the protease variant. As to conditions: temperature: 34 °C; time window: 0-4 h after rhamnose induction. The protocol: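 In vivo DNA recorder in E. coli TOP10(DE3) ΔrhaA at 34 °C. Each TEVp single-site mutant (parent TEVp 0) is paired with a single-site variant of the 7-mer TEVs (canonical ENLYFQ|S). The substrate sits between flexible linkers in a Bxb1-sfGFP-TEVs-SsrA fusion, so cleavage stabilises Bxb1 and speeds flipping of a recombination array, read by NGS. The value is the raw area under the fraction-flipped curve over 0-4 h after rhamnose induction (AUC4h), with ≥20 reads per time point. It is not background-subtracted; inactive controls average about 0.047.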

Some of the results follow. The full chains were built here from the parent and the listed change. Values near 0.05 are background.
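Note: Bxb1 expression induced with 0.2% (w/v) L-rhamnose at OD600 near 0.5, cultures sampled hourly, flipped fraction per protease–substrate barcode pair counted by paired-end Illumina sequencing.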

As for MGESLFKGPRDYNPISSSICHLTNESDGHTTSLYGIGFGPFIITNKHLFRRNNGTLVVQSLHGVFKVKDTTTLQQHLVDGRDMIIIRMPKDFPPFPQKLKFREPQREERICLVTTNFQTKSMSSMVSDTSCTFPSGDGIFWKHWIQTKDGQCGSPFVSTRDGFIVGIHSASNFTNTNNYFTSVPKNFMELLTNQEAQQWVSGWRLNADSVLWGGHKVFMVKPEEPFQPVKEATQL [L156F], the “area with substrate ENLYAQS” value was found to be 0.0497, the “area with substrate ENLYDQS” value was 0.0628, the “area with substrate ENLYEQS” value was determined as 0.061 and the “area with substrate ENLYHQS” value was found to be 0.0537. In addition, the “area with substrate ENLYIQS” value is 0.072, the “area with substrate ENLYKQS” value came to 0.0238, the “area with substrate ENLYLQS” value turned out to be 0.0733 and the “area with substrate ENLYNQS” value was 0.0523. The “area with substrate ENLYPQS” value was 0.0684, the “area with substrate ENLYQQS” value was 0.0866, the “area with substrate ENLYRQS” value is 0.066 and the “area with substrate ENLYTQS” value amounted to 0.0513. Further, the “area with substrate ENLYWQS” value is 0.0562.

As for MGESLFKGPRDYNPISSSICHLTNESDGHTTSLYGIGFGPFIITNKHLFRRNNGTLVVQSLHGVFKVKDTTTLQQHLVDGRDMIIIRMPKDFPPFPQKLKFREPQREERICLVTTNFQTKSMSSMVSDTSCTFPSGDGIFWKHWIQTKDGQCGSPLVSWRDGFIVGIHSASNFTNTNNYFTSVPKNFMELLTNQEAQQWVSGWRLNADSVLWGGHKVFMVKPEEPFQPVKEATQL [T159W], the “area with substrate ENLYAQS” value stood at 0.0648, the “area with substrate ENLYHQS” value came out at 0.0513 and the “area with substrate ENLYIQS” value was determined as 0.122.

Consider MGESLFKGPRDYNPISSSICHLTNESDGHTTSLYGIGFGPFIITNKHLFRRNNGTLVVQSLHGVFKVKDTTTLQQHLVDGRDMIIIRMPKDFPPFPQKLKFREPQREERICLVTTNFQTKSMSSMVSDTSCTFPSGDGIFWKHWIQTKDGQCGSPLVCTRDGFIVGIHSASNFTNTNNYFTSVPKNFMELLTNQEAQQWVSGWRLNADSVLWGGHKVFMVKPEEPFQPVKEATQL [S158C], for which the “area with substrate ENLYAQS” value was 0.065, the “area with substrate ENLYCQS” value amounted to 0.0798, the “area with substrate ENLYDQS” value is 0.0514 and the “area with substrate ENLYEQS” value is 0.0579. The “area with substrate ENLYGQS” value worked out at 0.0566, the “area with substrate ENLYHQS” value is 0.052, the “area with substrate ENLYIQS” value was 0.127 and the “area with substrate ENLYKQS” value is 0.0603. Besides, the “area with substrate ENLYMQS” value turned out to be 0.0623, the “area with substrate ENLYPQS” value came to 0.0657, the “area with substrate ENLYRQS” value is 0.0602 and the “area with substrate ENLYWQS” value is 0.0729. Besides, the “area with substrate ENLYYQS” value stood at 0.0668.

With MGESLFKGPRDYNPISSSICHLTNESDGHTTSLYGIGFGPFIITNKHLFRRNNGTLVVQSLHGVFKVKDTTTLQQHLVDGRDMIIIRMPKDFPPFPQKLKFREPQREERICLVTTNFQTKSMSSMVSDTSCTFPSGDIIFWKHWIQTKDGQCGSPLVSTRDGFIVGIHSASNFTNTNNYFTSVPKNFMELLTNQEAQQWVSGWRLNADSVLWGGHKVFMVKPEEPFQPVKEATQL [G138I], the “area with substrate ENLYAQS” value came out at 0.084, the “area with substrate ENLYEQS” value came out at 0.0637, the “area with substrate ENLYGQS” value worked out at 0.0555 and the “area with substrate ENLYHQS” value was 0.071. Further, the “area with substrate ENLYIQS” value was 0.111, the “area with substrate ENLYKQS” value came to 0.0551, the “area with substrate ENLYNQS” value was found to be 0.0649 and the “area with substrate ENLYPQS” value turned out to be 0.0667. Further, the “area with substrate ENLYWQS” value was found to be 0.0703.

On to MGESLFKGPRDYNPISSSICHLTNESDGHTTSLYGIGFGPFIITNKHLFRRNNGTLVVQSLHGVFKVKDTTTLQQHLVDGRDMIIIRMPKDFPPFPQKLKFREPQREERICLVTTNFQTKSMSSMVSDTSCTFPSIDGIFWKHWIQTKDGQCGSPLVSTRDGFIVGIHSASNFTNTNNYFTSVPKNFMELLTNQEAQQWVSGWRLNADSVLWGGHKVFMVKPEEPFQPVKEATQL [G136I], for which the “area with substrate ENLYAQS” value was 0.0761, the “area with substrate ENLYEQS” value stood at 0.0625, the “area with substrate ENLYGQS” value stood at 0.0619 and the “area with substrate ENLYMQS” value was 0.111. The “area with substrate ENLYNQS” value was 0.0698, the “area with substrate ENLYRQS” value came to 0.0492, the “area with substrate ENLYTQS” value is 0.0904 and the “area with substrate ENLYVQS” value was 0.0956.

With MGESLFKGPRDYNPISSSICHLTNESDGHTTSLYGIGFGPFIITNKHLFRRNNGTLVVQSLHGVFKVKDTTTLQQHLVDGRDMIIIRMPKDFPPFPQKLKFREPQREERICLVTTNFQTKSMSSMVSDTSCTFPSGDGIFWKHWIQTKDGQCGSPLKSTRDGFIVGIHSASNFTNTNNYFTSVPKNFMELLTNQEAQQWVSGWRLNADSVLWGGHKVFMVKPEEPFQPVKEATQL [V157K], the “area with substrate ENLYAQS” value is 0.0596, the “area with substrate ENLYDQS” value amounted to 0.0032, the “area with substrate ENLYGQS” value stood at 0.053 and the “area with substrate ENLYHQS” value is 0.0761. In addition, the “area with substrate ENLYKQS” value is 0.0276, the “area with substrate ENLYMQS” value was found to be 0.067, the “area with substrate ENLYPQS” value was 0.0659 and the “area with substrate ENLYSQS” value was found to be 0.0645. In addition, the “area with substrate ENLYWQS” value was 0.0339.

MGESLFKGPRDYNPISSSICHLTNESDGHTTSLYGIGFGPFIITNKHLFRRNNGTLVVQSLHGVFKVKDTTTLQQHLVDGRDMIIIRMPKDFPPFPQKLKFREPQREERICLVTTNFQTKSMSSMVSDTSCTFPSGDGIFWKHWIQTKDGQCGSPLHSTRDGFIVGIHSASNFTNTNNYFTSVPKNFMELLTNQEAQQWVSGWRLNADSVLWGGHKVFMVKPEEPFQPVKEATQL [V157H]: the “area with substrate ENLYAQS” value was determined as 0.0519, the “area with substrate ENLYCQS” value is 0.0494, the “area with substrate ENLYDQS” value is 0.0366 and the “area with substrate ENLYEQS” value was determined as 0.0551. Besides, the “area with substrate ENLYGQS” value is 0.0434, the “area with substrate ENLYHQS” value amounted to 0.0443, the “area with substrate ENLYIQS” value was 0.0771 and the “area with substrate ENLYKQS” value stood at 0.0492. In addition, the “area with substrate ENLYLQS” value stood at 0.0471, the “area with substrate ENLYMQS” value worked out at 0.0877, the “area with substrate ENLYNQS” value turned out to be 0.0513 and the “area with substrate ENLYPQS” value came to 0.0413. Moreover, the “area with substrate ENLYQQS” value was found to be 0.0583, the “area with substrate ENLYSQS” value came to 0.0502, the “area with substrate ENLYVQS” value was determined as 0.0541 and the “area with substrate ENLYWQS” value came to 0.025. Moreover, the “area with substrate ENLYYQS” value was found to be 0.0646.

In the case of MGESLFKGPRDYNPISSSICHLTNESDGHTTSLYGIGFGPFIITNKHLFRRNNGTLVVQSLHGVFKVKDTTTLQQHLVDGRDMIIIRMPKDFPPFPQKLKFREPQREERICLVTTNFQTKSMSSMVSDTSCTFPSGDGIFWKHWIQTKDGQCGSPLVSTRLGFIVGIHSASNFTNTNNYFTSVPKNFMELLTNQEAQQWVSGWRLNADSVLWGGHKVFMVKPEEPFQPVKEATQL [D161L], the “area with substrate ENLYAQS” value turned out to be 0.0497, the “area with substrate ENLYCQS” value came to 0.0645, the “area with substrate ENLYGQS” value turned out to be 0.0665 and the “area with substrate ENLYHQS” value turned out to be 0.0505. Moreover, the “area with substrate ENLYIQS” value came to 0.0649, the “area with substrate ENLYKQS” value turned out to be 0.0374, the “area with substrate ENLYLQS” value turned out to be 0.0663 and the “area with substrate ENLYMQS” value was determined as 0.0594. The “area with substrate ENLYNQS” value was 0.0638, the “area with substrate ENLYPQS” value came out at 0.0546, the “area with substrate ENLYQQS” value was determined as 0.0697 and the “area with substrate ENLYRQS” value was 0.0563. In addition, the “area with substrate ENLYTQS” value was determined as 0.0438, the “area with substrate ENLYVQS” value was 0.0661, the “area with substrate ENLYWQS” value was 0.0505 and the “area with substrate ENLYYQS” value was 0.0476.

As for MGESLFKGPRDYNPISSSICHLTNESDGHTTSLYGIGFGPFIITNKHLFRRNNGTLVVQSLHGVFKVKDTTTLQQHLVDGRDMIIIRMPKDFPPFPQKLKFREPQREERICLVTTNFQTKSMSSMVSDTSCTFPSGMGIFWKHWIQTKDGQCGSPLVSTRDGFIVGIHSASNFTNTNNYFTSVPKNFMELLTNQEAQQWVSGWRLNADSVLWGGHKVFMVKPEEPFQPVKEATQL [D137M], the “area with substrate ENLYAQS” value came to 0.0782, the “area with substrate ENLYDQS” value is 0.0741, the “area with substrate ENLYEQS” value stood at 0.0705 and the “area with substrate ENLYGQS” value came to 0.0703. The “area with substrate ENLYHQS” value was determined as 0.0681, the “area with substrate ENLYIQS” value came to 0.103, the “area with substrate ENLYKQS” value came to 0.0527 and the “area with substrate ENLYMQS” value came out at 0.0744. Moreover, the “area with substrate ENLYNQS” value worked out at 0.0735, the “area with substrate ENLYPQS” value stood at 0.075, the “area with substrate ENLYQQS” value was 0.0607 and the “area with substrate ENLYRQS” value stood at 0.0615. Moreover, the “area with substrate ENLYTQS” value was 0.0582, the “area with substrate ENLYWQS” value was found to be 0.0788 and the “area with substrate ENLYYQS” value stood at 0.0449.

As to MGESLFKGPRDYNPISSSICHLTNESDGHTTSLYGIGFGPFIITNKHLFRRNNGTLVVQSLHGVFKVKDTTTLQQHLVDGRDMIIIRMPKDFPPFPQKLKFREPQREERICLVTTNFQTKSMSSMVSDTSCTFPSGGGIFWKHWIQTKDGQCGSPLVSTRDGFIVGIHSASNFTNTNNYFTSVPKNFMELLTNQEAQQWVSGWRLNADSVLWGGHKVFMVKPEEPFQPVKEATQL [D137G], the “area with substrate ENLYAQS” value is 0.0748, the “area with substrate ENLYCQS” value worked out at 0.0938, the “area with substrate ENLYDQS” value is 0.0571 and the “area with substrate ENLYEQS” value was 0.0542. The “area with substrate ENLYHQS” value worked out at 0.0592, the “area with substrate ENLYIQS” value amounted to 0.102, the “area with substrate ENLYKQS” value is 0.0566 and the “area with substrate ENLYNQS” value came to 0.069. Further, the “area with substrate ENLYPQS” value came out at 0.0655, the “area with substrate ENLYQQS” value stood at 0.0651, the “area with substrate ENLYRQS” value is 0.0665 and the “area with substrate ENLYSQS” value was 0.0707. Besides, the “area with substrate ENLYWQS” value came out at 0.0814.

For the origin of these results see the supplement of paper PMC12217912.
